Measurements published in PubChem BioAssay AID1963576 (National Center for Advancing Translational Sciences (NCATS), 2024).
In all, about 46,000 compounds went through this assay and about 60 (0.1%) were called active. Inconclusive results (about 3%) are left out. Calls come from the whole dose curve; as a rule, active = well fitted inhibition curve with a large enough effect; inconclusive = small, poorly fitted or top-dose-only effect; inactive = no such curve, though single readings can be large or run the other way. Some of the results follow.

Test: Primary qHTS assay for Inhibitors of ovarian cancer metastasis using an organotypic tumor microenvironment (TME) model.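 For activity change, negative = inhibition: plate controls were DMSO wells for no effect and tomatine positive control wells for full effect.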 Note: nearly all actives have a fitted effect of over 65% in size.
Details: SKOV3ip1-GFP adhesion/invasion on 3D omental model, fluorescence; series mostly up to 45.8 µM; activity change, negative = inhibition: at the top concentration
How it was run: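 qHTS, 4-pt dose (0.36-46 umol/L); SKOV3ip1-GFP, 1,200 cells/well, no FBS; primary omental fibroblast/mesothelial co-culture 48 h pre-grown; 2 h RT + 16 h 37 C; PBS wash, 4% PFA; GFP count 488/509 nm.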

Activity change, negative = inhibition, inactive:
CCOC(=O)c1scc(-c2ccc(C)cc2)c1S(=O)(=O)Nc1ccc(OC)c(Cl)c1 -2.93%
Cc1ccc(NC(=O)Cn2c(=O)n(CCC(=O)NCc3ccccc3Cl)c(=O)c3ccccc32)c(C)c1 -2.46%
CCOCCCNc1nc2cc(OC)c(OC)cc2c2nc(-c3ccccc3)nn12 2.56%
COc1ccc(C2C(C(=O)Nc3ccccc3)=C(C)Nc3nc(-c4ccccc4Cl)nn32)cc1OC (centres undefined) -0.765%
Cc1ccc(CNC(=O)CN(c2cc(C)cc(C)c2)S(=O)(=O)c2c(C)noc2C)cc1 8.3%
O=C(CSc1cn(CC(=O)N2CCCC2)c2ccccc12)Nc1ccccc1C(F)(F)F 1.89%
Cc1cccc(Cn2c(=O)n(CC3CCC(C(=O)N4CCC(C)CC4)CC3)c(=O)c3sccc32)c1 (centres undefined) -1.06%
COc1cc2[nH]c(=O)n(CCCCCC(=O)N3CCN(c4ccc(Cl)cc4)CC3)c(=O)c2cc1OC -11.2%
Cc1[nH]nc2ccc(-c3cncc(OC[C@@H](N)Cc4ccccc4)c3)cc12 15.3%
O=C(Nc1cccc(Br)c1)c1cc(-c2ccc3c(c2)OCCO3)on1 -7.21%
COc1cc2nc(NCc3ccccc3)n3nc(-c4ccccc4)nc3c2cc1OC 5.73%
COc1ccc2c(c1)cc1c(=O)n(CC(=O)NCCc3ccccc3)nc(C)n12 -9.97%
CCOC(=O)Cc1ccc(NC(=O)N2CC(C)Oc3ccc(Cl)cc32)cc1 (centres undefined) -14.8%
Cc1nc2ccn(Cc3cccs3)c(=O)c2cc1C(=O)N1CCN(c2ccccc2)CC1 4.61%
COc1ccc(-n2c(=O)c3ccc(C(=O)NCc4ccc(C)cc4)cc3n(Cc3ccc(C)cc3)c2=O)cc1 15.7%
Cc1ccc2c(c1)N(S(=O)(=O)c1ccc3c(c1)NC(=O)CC(=O)N3)CCO2 -5.82%
Cc1ccccc1CNCCSc1nnnn1-c1ccccc1 6.66%
Cc1ccc(-n2c(=O)c3ccc(C(=O)NCc4ccco4)cc3n(Cc3ccc(Cl)cc3)c2=O)cc1 -0.367%
Cc1ccc(-n2nc3c(=O)n(CC(=O)NCc4ccco4)nc(C)c3c2C)cc1 -4.41%
Cc1cc(C)c2sc(N3CCN(C(=O)C4CC4)CC3)nc2c1 -9.81%
Cc1nc2nc(SCC(=O)N(Cc3ccccc3)C(C)C)nn2c(C)c1Cc1ccccc1Cl -0.317%
COC(=O)c1cc2occc2n1Cc1nc(-c2cccc(Br)c2)oc1C 1.62%
COc1ccc(C(=O)c2sc(Nc3cc(Cl)ccc3C)nc2N)cc1OC -10.7%
Cc1cc(C)c(NC(=O)Cn2c(=O)n(-c3ccc(F)cc3)c(=O)c3c(C)c(C(=O)N(C)C)sc32)c(C)c1 -0.527%
CCc1ccc2ncc3c(-c4ccc(C)cc4)nn(CC(=O)Nc4ccc(C)cc4)c3c2c1 5.59%
CCOC(=O)c1cnc2ccc(Cl)cc2c1Nc1ccc(OCC)cc1 0.555%
CCOc1cc(C2Sc3ccccc3NC3=C2C(=O)c2ccccc23)ccc1O (centres undefined) -21.4%
CCOC(=O)c1ccc(NC(=O)CC2C(=O)N(c3ccc(F)cc3)C(=O)N2Cc2ccc(C)cc2)cc1 (centres undefined) 2.82%
Cc1nc(-n2nc(C)c(CCC(C)C)c2C)sc1C(=O)Nc1ccc(Br)cc1 -2.54%
CC(=O)c1ccc(NC(=O)CSc2nc(C3CCCC3)nc3c2c(=O)n(C)c(=O)n3C)cc1 15.8%
CCCCOc1ccccc1C(=O)Nc1onc2c1CCCC2 -20.5%
CC1CCN(c2oc(-c3ccc(COc4ccc(Cl)cc4)o3)nc2C#N)CC1 -11.1%
COc1ccc(CNC(=O)C2=C(C)C(=O)OC23CCN(C(C)=O)CC3)cc1 9.52%
CCOc1ccccc1CNC(=O)c1ccc(Cn2c(SCc3ccccc3)nc3cccnc32)cc1 1.37%
Fc1ccc(N2CCN(Cc3cccn3-c3nnc(N4CCN(C5CCCCC5)CC4)s3)CC2)cc1 -11.9%
CC(C)[C@H](O)C(=O)N[C@@H](C)C(=O)N[C@@H]1C(=O)N(C)CCc2ccccc21 4.02%
Cc1ccc(NC(=O)C2CCCN(c3cnccn3)C2)c(C)c1 (centres undefined) -8.07%
CCc1ccc(-c2nc(CSCC(=O)N3CCN(c4ccc(F)cc4)CC3)c(C)o2)cc1 -0.927%
CC(=O)Nc1ccc(Nc2ncnc3c2c(-c2ccccc2)cn3-c2ccc(C)c(Cl)c2)cc1 -30.5%
Cc1ccccc1Cn1c(SCc2ccc(C(=O)NC3CCCC3)cc2)nc2ccncc21 10.5%
CCCOc1cccc(C(=O)Nc2ccc(-c3cc4ccccc4oc3=O)c(C)c2)c1 -2.43%
CCOc1ccccc1NC(=O)c1cc2c(=O)n(Cc3cccnc3)ccc2nc1C 10.9%
CCOC(=O)c1ccc(NC2=CC(c3ccc(F)cc3)N(c3ccc(C(=O)OCC)cc3)C2=O)cc1 (centres undefined) 17.7%
COc1cc(C2NC(=O)c3c(sc4c3CCN(C)C4)N2)ccc1OC(=O)c1ccccc1 (centres undefined) 0.887%
COc1ccc(NC(=O)N2CCN3CCCCC3C2)cc1OC (centres undefined) 0.358%
COc1cccc(NC(=O)N2CCN(C(=O)c3nsc4ccccc34)CC2)c1 -8.17%
Cc1nc2c(c(C)nn2-c2ccccc2)c(C)c1CCC(=O)NCCc1ccc(Cl)cc1 6.32%
COc1ccccc1N=c1scc(-c2ccc(S(=O)(=O)N3CCCC3)cc2)n1C 7.29%
COc1cc(-c2cc(OC)c3c(C)oc(C)c3c(=O)c2)ccc1OC(=O)c1cccc(Cl)c1 -22.9%
COc1ccc(NC(=O)CCCN2C(=O)COc3ccc(C)cc32)cc1OC -5.12%
CCOC(=O)c1ccc(NC(=O)c2nn(C)c3c2COc2ccccc2-3)cc1 -0.151%
COCCCNC(=O)c1ccc2c(c1)NC(=O)C(C(C)C)N2 (centres undefined) -6.01%
CC(C)(C)OC(=O)N1CCC(c2c(C(=O)N3CCN(C(=O)c4ccco4)CC3)cnn2-c2ccccc2Cl)CC1 -2.99%
O=C(Cn1c(=O)n(-c2ccc(Cl)cc2)c(=O)c2c3c(sc21)CCC3)c1ccccc1 2.76%
CCOC(=O)c1c(NC(=O)CSc2cn(CCNC(=O)c3ccccc3F)c3ccccc23)sc2c1CCCC2 13%
Cc1ccccc1C(=O)c1cccn1CC(=O)NCc1cccc(Cl)c1 -1.12%
CC(C)(C)NC(=O)c1oc2ccccc2c1NC(=O)c1ccc(F)cc1 0.253%
CCc1ccc(S(=O)(=O)c2nnn3c2nc(NCCNC(C)=O)c2cc(Cl)ccc23)cc1 -1.9%
COCCN(CCOC)c1ncnc2c1c(-c1ccccc1)cn2-c1ccc(C)c(Cl)c1 47.8%
CCCCNC(=O)C(CC)Sc1nc2ccccc2c(=O)n1CCc1ccc(OC)c(OC)c1 (centres undefined) -5.74%
Cc1ccc(Cn2cc(CCC(=O)NCc3ccc(OC(C)C)cc3)c3ccccc32)cc1 -3.56%
Cn1c(SCc2ccccc2F)nc2c([nH]c3ccccc32)c1=O 0.842%
COc1ccccc1C(=O)Nc1ccc(OCc2cc(=O)n3cc(C)sc3n2)cc1 2.37%
COc1ccc(C)cc1NC(=O)c1ccc2c(c1)nnn2C1CCCC1 80.3%
CCc1ccc(NC(=O)Cn2c(-c3cncs3)nc3ccccc32)cc1 12.7%
Cc1ccc(NC(=O)Cn2c(=O)n(Cc3ccc4c(c3)OCO4)c(=O)c3ccc(C(=O)NC4CCCCC4)cc32)c(C)c1 36.2%
c1ccc(OCCn2c(COc3ccccc3)nc3ccccc32)cc1 -18.6%
Cc1ccc2[nH]c(=O)c3cc(C(=O)NCCc4ccc(Cl)cc4)sc3c2c1 -3.82%
CCc1ccc(NC(=O)c2cnc3sc(N4CCCC4)nn3c2=O)cc1 3.61%
Cc1cc2nc(-c3ccc(OCc4ccccc4)cc3)cc(C(F)(F)F)n2n1 3.77%

outcome, inactive:
Cc1cccc(NS(=O)(=O)c2ccc3nc(-c4ccccc4)[nH]c3c2)c1C
COC(=O)c1ccccc1NC(=O)c1ccc2c(Cl)c3c(nc2c1)CCCC3
Cc1ccc2c(c1)N(CC(=O)NCCCN1CCCCC1C)C(=O)c1cccnc1O2 (centres undefined)
CSc1ccc(CCNc2ncnc3onc(-c4ccc(Cl)cc4)c23)cc1
CC(=O)c1ccc(NC(=O)CCc2nc(-c3ccc(C)cc3)no2)cc1
COc1cccc(-c2nc3c(c(SCC(=O)Nc4cc(C)ccc4C)n2)Cc2c(CO)cnc(C)c2O3)c1
CSc1ccc(CNC(=O)CCc2c(C)nn(-c3ccc(N4CCCC4)nn3)c2C)cc1
COc1ccc(CCNC(=O)CCCn2c(SCC(N)=O)nc3cc4c(cc3c2=O)OCO4)cc1OC
CCOC(=O)N1CCc2c(sc3c2c(=O)n(Cc2ccccc2)c(=O)n3Cc2ccc(C)cc2)C1
CC(C)OC(=O)/C(C#N)=C/c1ccc(-c2ccc(Cl)c(Cl)c2)o1
Cc1cc(C)c2nc(NC(=O)c3ccc(S(=O)(=O)N4CCC(C)CC4)cc3)sc2c1
CCOC(=O)c1cc(-c2ccccc2)n(-c2cccc(C(=O)N(C)c3ccc(C)cc3)c2)c1C
CCc1ccccc1NC(=O)c1cc2c(Cl)nc3ccccc3c2s1
CCOC(=O)c1c(C)[nH]c(C)c1S(=O)(=O)N1CCC(C(=O)Nc2ccc(C)c(Cl)c2)CC1
CCCSc1nc2sc3c(c2c(=O)n1-c1cccc(Br)c1)CC(C)(C)OC3
Cc1c(NC(=O)c2ccc(Br)o2)cccc1-c1nc2ccccc2o1
Cc1cccc(C)c1NC(=O)CCS(=O)(=O)c1cccc2nonc12
COc1ccccc1CNC(=O)CCNS(=O)(=O)c1cccc2nsnc12
CC(C)c1ccc(OCc2cc(=O)n3c(-c4ccccc4)csc3n2)cc1
Cc1ccc(S(=O)(=O)c2nnn3c2nc(NCc2ccccc2Cl)c2sccc23)cc1
COc1ccc(CCN2C(=O)CN(C3CCC(C)CC3)C(=O)C2c2ccc(OC(C)C)c(OC)c2)cc1OC (centres undefined)
CCc1nn(CCCC(=O)NC(C)c2ccccc2)c(=O)c2cc3occc3n12 (centres undefined)
CCn1c2ccccc2c2cc(CN3CCN(Cc4ccccc4C)CC3)ccc21
O=C1c2oc3ccccc3c(=O)c2C(c2cccc(Cl)c2)N1c1ccccn1 (centres undefined)
